Assay results reported in PubChem BioAssay AID488969 (Vanderbilt High Throughput Screening Facility, 2010).
Over roughly 110,000 compounds, “z-score” has its median near -0.1; the highest 2% begin near 2. The list shows a part of the results. Activity calls are given as the source filed them.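 Rule for the calls: active = z-score in the third read window above 3 or below -3; inactive = the rest.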

molecular target: Metabotropic glutamate receptor 8 (Rattus norvegicus) (UniProt P70579); test: mGluR8 Gi/Go-coupled signaling modulation – cell-based, rat, thallium flux, HTS, primary screen (AID 488969); conditions: HEK293 rat mGluR8, GIRK (G protein-gated inwardly rectifying potassium channel) thallium flux, FluoZin2; at 10 µM; stronger effect = higher value; submaximal glutamate (EC20) added with thallium
UniProt P70579, sequence (P70579 whole entry, looked up): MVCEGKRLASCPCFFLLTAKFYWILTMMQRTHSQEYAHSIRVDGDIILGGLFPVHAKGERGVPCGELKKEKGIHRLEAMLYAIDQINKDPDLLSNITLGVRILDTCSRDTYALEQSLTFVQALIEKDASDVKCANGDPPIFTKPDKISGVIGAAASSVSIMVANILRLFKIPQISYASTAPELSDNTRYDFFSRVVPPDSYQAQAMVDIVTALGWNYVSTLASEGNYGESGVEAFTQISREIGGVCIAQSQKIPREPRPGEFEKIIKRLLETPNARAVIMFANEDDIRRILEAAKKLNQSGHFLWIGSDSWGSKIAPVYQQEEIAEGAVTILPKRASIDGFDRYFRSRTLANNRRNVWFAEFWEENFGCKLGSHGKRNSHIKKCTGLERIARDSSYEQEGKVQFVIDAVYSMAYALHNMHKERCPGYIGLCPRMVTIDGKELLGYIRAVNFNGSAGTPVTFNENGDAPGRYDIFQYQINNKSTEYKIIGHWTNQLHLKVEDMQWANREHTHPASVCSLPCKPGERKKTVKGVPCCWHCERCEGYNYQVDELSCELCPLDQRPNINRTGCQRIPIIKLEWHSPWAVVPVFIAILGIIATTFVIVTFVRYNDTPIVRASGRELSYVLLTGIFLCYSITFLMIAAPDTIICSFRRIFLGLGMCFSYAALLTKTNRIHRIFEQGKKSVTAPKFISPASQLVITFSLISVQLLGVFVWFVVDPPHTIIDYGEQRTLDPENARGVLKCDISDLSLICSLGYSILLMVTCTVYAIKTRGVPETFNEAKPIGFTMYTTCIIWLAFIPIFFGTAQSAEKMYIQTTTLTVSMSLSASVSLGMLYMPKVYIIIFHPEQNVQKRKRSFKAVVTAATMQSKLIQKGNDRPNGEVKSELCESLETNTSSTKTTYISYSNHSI

Compound | z-score
COc1ccccc1N1CCN(CCCC(=O)c2ccc(F)cc2)CC1 | -0.123
O=C(N/N=C/C=C/c1ccccc1)C1CC1(c1ccccc1)c1ccccc1 (configuration not stated) | -0.153
Cc1cc(C)n2c(Nc3ccc4c(c3)OCCO4)c(-c3ccc(C)o3)nc2n1 | -1.17
CCCN(CCC)CCNS(=O)(=O)c1ccc2c(c1)oc(=O)n2C | -0.41
COC(=O)Cn1c(C)nc2c(sc3nc(C)cc(C)c32)c1=O | -0.232
CCN(CC)CCN1C(=O)C(O)=C(C(C)=O)C1c1ccc(OC)c(OC)c1 (configuration not stated) | -0.175
CCOc1ccc(N2C(=O)CC(Sc3nc(-c4cccs4)cc(C(F)(F)F)c3C#N)C2=O)cc1 (configuration not stated) | -0.248
C(=N\Nc1ncnc2sc3c(c12)CCC3)/c1ccncc1 | -0.0869
CC(C)(C)c1nnc2sc(SCC(=O)c3ccc(Cl)cc3)nn2c1=O | -0.209
O=C(CSc1nnc(-c2ccco2)o1)c1ccc(F)c(F)c1 | 0.152
CCn1c(SCC(=O)Nc2nc(C)c(C)s2)nc2cccnc21 | 0.0817
O=C(NCc1nnc(SCc2ccc(F)cc2)n1-c1ccccc1)C12CC3CC(CC(C3)C1)C2 | -0.701
COc1ccccc1NC(=S)Nc1ccccn1 | 0.164
COc1ccc(Nc2ccc(C(=O)O)cc2[N+](=O)[O-])cc1 | 1.23
O=C(Nc1ccc2c(c1)C(=O)N(CC1CCCO1)C2=O)c1cccc(Br)c1 (configuration not stated) | -0.369
COc1ccc(Oc2nccc(OC)c2C#N)cc1 | 0.0921
Cc1ccc(Cn2nnnc2CN2CCC(c3nc4ccc(Cl)cc4[nH]3)CC2)cc1 | -1.45
Cc1ccc(S(=O)(=O)N2CCN(C(=O)c3cccc(F)c3)CC2)cc1 | -0.012
Cc1ccc(-c2nc3ncccn3c2NC2CCCC2)o1 | -0.343
CCOc1ccc(C(=O)NCC2CCCO2)cc1 (configuration not stated) | 0.58
O=S(=O)(NCC1CCCO1)c1ccc(S(=O)(=O)N(Cc2ccc(F)cc2)C2CCCCC2)cc1 (configuration not stated) | -0.0636
Cc1ccc(C)c(N2CCN(C(=O)c3ccc4nc(-c5ccco5)c(-c5ccco5)nc4c3)CC2)c1 | -0.183

Compound | z-score
Oc1ccc(Cl)cc1C(C#Cc1ccccc1)N1CCOCC1 (configuration not stated) | -0.0129
O=C(Cc1ccccc1)N/N=C/c1cccn1-c1ccc([N+](=O)[O-])cc1 | active: 3.83
Cc1cccc(OCCCC(=O)Nc2ccc(N3CCCCC3)cc2)c1 | 0.00859
O=c1[nH]c(/C(Cl)=C/c2cc(Cl)ccc2O)nc2cc(Cl)ccc12 | 0.496
COC(=O)c1ccc(NC(=O)c2cn(-c3cccc(C)n3)cn2)cc1 | -0.196
Nc1ccc(Sc2cnn(-c3ccccc3)c(=O)c2Cl)cc1 | -2.01
COC(=O)c1cn(CCOc2ccccc2)c2ccccc12 | -0.11
O=C(N/N=C/c1ccc(OCc2ccccc2)cc1)c1cc[n+](Cc2ccccc2)cc1 | 1.44
CCOC(=O)c1sc(C)c2c(=O)n(CC)nnc12 | 0.154
CCN(CC)C(=O)c1c(C)nc2ccccn12 | -0.394
Cc1cc(C)n(CC(=O)n2c(C)c(C)c3ccccc32)n1 | -0.195
COC(=O)Cc1cc(=O)[nH]c(Nc2nc3ccccc3o2)n1 | -0.0319
O=C(CCN1C(=O)/C(=C\c2ccccc2)SC1=S)NNC(=O)c1cccnc1 | -0.57
N/C(Cc1ccc([N+](=O)[O-])cc1)=N\OC(=O)c1ccc2ccccc2c1 | 0.358
CC(=O)CSc1nnc(CSc2ncccn2)n1C1CCCCC1 | 0.152
Cc1ccc(NC(=O)CN2C(=O)C3C4C=CC(C4)C3C2=O)cc1S(=O)(=O)N(C)C (configuration not stated) | -0.278
CC(C)(C)c1ccc(CN(Cc2ccccc2)C(c2ccccn2)c2nnnn2C(C)(C)C)cc1 (configuration not stated) | 0.203
O=C1C2C3C=CC(C3)C2C(=O)N1/N=C/c1cc(Br)cc([N+](=O)[O-])c1O (configuration not stated) | -0.236
Cc1cc(Br)ccc1OCCCCNC(C)(C)C | 1.25
O=[N+]([O-])c1ccc(Oc2cccc(Br)c2)c2ccncc12 | 0.302
O=C(CCCc1c[nH]c2ccccc12)N1CCN(c2ccc(N3CCOCC3)nn2)CC1 | -0.501
CC(=O)c1cc2c(cc1NS(=O)(=O)c1ccc3c(c1)OCCO3)OCO2 | -1.28

Compound | z-score
CCOC(=O)c1ccc(NC(=O)COc2ccc(S(=O)(=O)NC(C)CC)cc2)cc1 (configuration not stated) | -0.303
Cc1c(CCO)c(=O)n(-c2ccccc2)n1S(=O)(=O)c1ccc(F)cc1 | 0.325
Cc1nn(-c2ccccc2)c(C)c1C1C(C#N)=C(N)Oc2n[nH]c(C)c21 (configuration not stated) | -0.293
C=CCOC(=O)C1=C(C)NC(SCC(=O)OCC)=C(C#N)C1c1ccc(C)cc1 (configuration not stated) | -0.147
O=C(O)c1c(NC(=O)c2cccc3ccccc23)sc2c1CCC2 | -1.42
COc1ccc(Nc2nc(N3CCCCC3)c3ccccc3n2)cc1 | 1.03
CC1=CC2=NC(=O)/C(=C\c3cc(C)n(-c4ccccc4)c3C)C(=N)N2O1 | 0.321
O=C(O)CCc1nnc2n(Cc3ccc(F)cc3)c(=O)c3ccccc3n12 | -0.587
S=C(Nc1ccc2nsnc2c1)N1CCCCC1 | -0.0604
Oc1ccc(C(=S)N2CCCCCC2)cc1 | -0.122
O=C(COC(=O)c1c2c(nc3ccccc13)/C(=C/c1ccco1)CC2)NC1CCCC1 | 0.0442
Cc1ccc(CSc2nnc(-c3ccc(S(=O)(=O)N4CCCC4)cc3)o2)cc1 | 1.62
COc1cc(C(=O)N2CCC(c3nc(-c4cccnc4)no3)CC2)cc(OC)c1OC | -0.0889
O=C(/C=C/c1ccccc1)C1C(=O)c2ccccc2C1=O | active: 4.21
O=C(O)COc1ccc(Br)cc1/C=C1/SC(=O)N(CC(=O)N2CCCC2)C1=O | -0.0243
Cc1ccc2c(=O)c(C(=O)NCc3cccs3)c[nH]c2c1 | 0.313
O=C(NCc1cccnc1)C1c2ccccc2C(=O)N1C1CCCCCC1 (configuration not stated) | -0.161
Cc1nn(-c2ccccc2Cl)c(Cl)c1/C=N/Nc1nc2ccccc2s1 | 0.161
Cc1conc1NC(c1cccs1)c1ccc2cccnc2c1O (configuration not stated) | active: 3.41
NS(=O)(=O)c1ccc(Nc2nc(-c3ccccc3)cs2)cc1 | -0.159
Cc1ccc2nc(-c3ccccn3)cc(C(=O)N3CCN(c4ncccn4)CC3)c2c1 | -0.843
CCOc1cccc(-c2nnc3sc(COc4ccc(OC)cc4)nn23)c1 | -0.272

Compound | z-score
Cc1cccc(C(=O)Nc2nnc(-c3ccco3)o2)c1 | 0.11
CCc1ccccc1N1CC23C=CC(O2)C(C(=O)OC)C3C1=O (configuration not stated) | 0.413
Cc1ccc2oc(=O)c3cnn(CC(=O)N(CCC(C)C)Cc4ccco4)c3c2c1 | -2.01
CC(C)(C)c1ccc(C(=O)N2CCCCCC2=O)cc1 | -0.238
CCOc1ccccc1N1Cc2cc(C)c(C)cc2C1 | 0.67
COc1ccc(OC)c(NC(=O)Nc2cccc(Cn3cccn3)c2)c1 | -0.416
CN1C(=O)C(CC(=O)Nc2ccc3c(c2)Cc2ccccc2-3)N(C)C1=O (configuration not stated) | 0.675
Cc1cc(C)c(C)c(S(=O)(=O)ON2C(=O)c3ccccc3C2=O)c1C | -0.121
Cc1cc(Cl)ccc1Oc1cccc(C(=O)/C(C#N)=C/N(C)C)c1 | -0.334
COc1ccc(C2C=C(c3ccccc3)Nc3ncnn32)cc1 (configuration not stated) | -2.33
COc1cc(/C=C/C(=O)Nc2ccc(N3CCCCC3)c(S(=O)(=O)Nc3ccccc3Cl)c2)cc(OC)c1OC | -0.129
O=C(COC(=O)COc1ccccc1)NC1CCCc2ccccc21 (configuration not stated) | -0.426
O=C(Cn1c(=O)oc2ccccc21)N1CCN(c2ccccc2)CC1 | 0.442
O=C(Nc1cccc(C(=O)N2CCCC2)c1)c1ccccc1 | -0.224
COc1ccc(-c2cc(N)n(S(=O)(=O)c3ccc(C)cc3)n2)c(OC)c1 | -0.184
COc1ccc(NC(=O)Nc2c(C)n(-c3ccccc3)c(=O)n2C)cc1OC | 0.771
COc1cc(OC)cc(-c2nc3ccccc3c(=O)n2OC(=O)c2ccc(C)c(C)c2)c1 | -0.711
CC(=O)Oc1ccc2ccccc2c1C(NC(=O)Cc1ccccc1)c1ccc(Cl)cc1 (configuration not stated) | -0.109
CCC(C)(C)n1nnnc1C(c1ccc(C)cc1)N1CCSCC1 (configuration not stated) | -0.406
CC1=NNC(=O)C1CCC(=O)N/N=C(/C)c1ccc([N+](=O)[O-])cc1 (configuration not stated) | -0.197
O=C(NC(N1CCCCCC1)C(Cl)(Cl)Cl)c1ccccc1Cl (configuration not stated) | -0.147
COC(=O)c1ccc(NC(C)C(=O)OC)c([N+](=O)[O-])c1 (configuration not stated) | 0.768

Compound | z-score
Cc1ccc(-n2nc3c(c2NC(=O)c2ccccc2Br)CS(=O)C3)cc1 (configuration not stated) | -0.104
Cc1ccc(-c2nc3n(n2)Cc2ccccc2-3)cc1 | -0.495
CCc1cccc(CC)c1NC(=O)COC(=O)C1(c2ccc(Cl)cc2)CCCC1 | -0.174
CCc1nnc(NC(=O)c2ccc(Cl)c(S(=O)(=O)N3CCc4ccccc43)c2)s1 | -0.758
COC(=O)C1C(=O)c2c([nH]c(C(=O)OC3CCCC3)c2C)CC1C (configuration not stated) | -1.66
O=C(Cc1c[nH]c2ccccc12)OCC(=O)c1ccccc1 | -0.21
CCOc1ccc(S(=O)(=O)n2nnc3ccccc32)cc1C(C)C | 0.0867
Cc1cc(-c2csc(N)n2)c(C)n1-c1ccc(Cl)c(Cl)c1 | 0.23
CC(c1ccco1)N(C(=O)c1ccccc1NS(=O)(=O)c1ccc(Cl)cc1)c1ccccn1 (configuration not stated) | -0.362
CCCSc1nc2c(=O)[nH][nH]c(=O)c2n1Cc1ccccc1 | -2.43
CCc1cc2c(NC(C(=O)O)C(C)C)ncnc2s1 (configuration not stated) | -2.02
CCS(=O)(=O)Nc1ccc(Cc2ccc(NS(=O)(=O)CC)cc2)cc1 | 0.315
Cc1ccc(C(=O)OCC(=O)Nc2ccccc2N2CCOCC2)cc1 | -1.57
N#C/C(=C(\O)CCl)c1nnc2n1CCCCC2 | -0.399
Cc1c(/C(O)=C2\C(=O)C(=O)N(CCN(C)C)C2c2cccs2)cnn1-c1ccccc1 (configuration not stated) | 0.388
Cn1c(=O)c2c(nc(OCc3ccc4c(c3)OCO4)n2Cc2ccccc2Cl)n(C)c1=O | -0.0202
Cc1ccccc1C(=O)OCCCN=C1NS(=O)(=O)c2ccccc21 | -0.257
O=C(OCC(=O)N1CCCCC1)c1cc(NS(=O)(=O)c2ccc(Cl)c([N+](=O)[O-])c2)ccc1O | -0.652
S=C(Nc1cccc2ccccc12)N1CCN(c2ncccn2)CC1 | -0.1
